We go through 42 molecules from ChEMBL document CHEMBL4888484, “Replenishing the malaria drug discovery pipeline: Screening and hit evaluation of the MMV Hit Generation Library 1 (HGL1) against asexual blood stage Plasmodium falciparum ,using a nano luciferase reporter read-out” (2022).

Molecules are shown by their SMILES. Hit rate of the full screen: of about 150,000 compounds, about 540 (0.36%) showed an effect of 50% or more. This is one part of the list.

This experiment has as its system Plasmodium falciparum. Nature of the experiment: Primary screen in NF54 nanoGlo assay, in single point, at 2uM, 72h; a lower Z score goes with more inhibition. It is filed as functional, Erythrocyte. Particulars: timepoint 72 hour.
By % Inhibition is commonly meant the change of the read-out against control, counted positive when it falls. Turning to `Cc1ccsc1CCNc1nnc(C2CCC2)o1`, the “% Inhibition” value was 3% and the Z score was -0.36.
For `CN(C)c1ccccc1N(C)Cc1nc(N)nc(N)n1` the same measures were 27% and -3.47.
For `C[C@H]1CS(=O)(=O)N(c2cccc(C(=O)NCc3ccco3)c2)C1=O` the same measures were -16% and 1.75.
For `Cc1cccc(-c2nc3n(CC(=O)N4CCCCC4)c(C)cc(=O)n3n2)c1` the same measures were 1% and -0.17.
Consider `Cc1ccc(-c2nc3nc(-c4ccc(F)cc4)cn3nc2-c2ccc(C)cc2)cc1`, for which the “% Inhibition” value was -5% and the Z score turned out to be 0.62.
Turning to `Cc1ccnc(N2CC[C@]3(CCOC3)C2)n1`, the “% Inhibition” value is recorded as -12% and the Z score was 1.23.
For `Cc1cnc(-n2cnnc2)c(-c2cccnc2)c1` the same measures were 0% and 0.05.
For `C=C(C)CNC(=O)CC(=O)Nc1ccc(OC)cc1OC` the same measures were -10% and 0.98.
For `CC(=O)Nc1ccc(C(=O)N2CCCN(CCn3nc(C)cc3C)CC2)cc1` the same measures were -12% and 1.92.
For `CC(NC1CCc2[nH]ncc2C1)c1cccc(F)c1` (centres undefined), the “% Inhibition” value was -9% and the Z score was 1.07.
For `CNC(=O)C[C@H](C)N(C)Cc1cncn1C(C)C` the same measures were -5% and 0.63.
For `CC(C)C[C@H](C)OC(=O)N1CCC(NC(=O)N2CCOCC2)CC1` the same measures were -6% and 0.81.
For `COc1ccc(C[C@](C)(O)CNS(=O)(=O)c2cnn(C)c2)cc1` the same measures were -8% and 1.36.
For the molecule `CC(C)c1nnc(NC(=O)C[C@@H]2C=CCC2)s1`, the “% Inhibition” value came out at 4% and the Z score is -0.35.
For `CC(C)CN(CC(=O)Nc1nc(-c2ccccc2)cn1-c1ccc(C(F)(F)F)cc1)C(=O)c1ccco1` the same measures were -6% and 0.52.
For `CN1CCC[C@H](C(=O)Nc2ccccc2C(=O)NCc2ccccn2)C1` the same measures were 19% and -3.21.
For `Cc1c[nH]c(CNc2ccc(C(F)(F)F)nn2)c(C)c1=O` the same measures were -6% and 0.76.
As to `O=C1COc2cc(NS(=O)(=O)c3cc(F)ccc3F)c(Br)cc2N1`, the “% Inhibition” value is listed as 0% and the Z score came to 0.02.
For `Cc1cc(C(=O)N2CCN(c3cc(Cl)ccc3C)CC2)on1` the same measures were -17% and 1.59.
For `CCc1csc(CNC(=O)c2ccc(N3CCN4CCC[C@H]4C3)nc2)n1` the same measures were -5% and 0.87.
Turning to `COc1ccc(-n2nc(C)c3c2NC(=O)C[C@@H]3c2ccc(C(C)C)cc2)nn1`, the “% Inhibition” value was -6% and the Z score is 1.1.
For `CC(C)c1nnc(-c2ccc3c(c2)OCO3)o1` the same measures were -9% and 1.29.
For `Cn1cc([C@H]2CN(C/C=C/c3ccccc3)C[C@H]2CC(=O)O)nn1` the same measures were -19% and 1.89.
For `CC#CCN1C(=O)N[C@@](CCCc2ccccc2)(C2CCN(Cc3cc4ccccc4[nH]3)CC2)C1=O` the same measures were 17% and -2.15.
Turning to `Cn1c2c(c3ccccc31)C(C)(C)Cc1c-2cnn1-c1ccccc1`, the “% Inhibition” value is on record as -10% and the Z score worked out at 1.87.
For `O=C(NCCN1CCc2ccccc2C1=O)c1cccs1` the same measures were -16% and 2.88.
For `c1nc(N2CCN(CCc3cscn3)CC2)c2ccsc2n1` the same measures were -16% and 2.19.
In the case of `Cc1ncsc1C(=O)NCCCOC[C@H]1CCCO1`, the “% Inhibition” value was 0% and the Z score is reported as -0.01.
For `COc1ccc(CC(=O)N2CCN(S(=O)(=O)N3CC(C)OC(C)C3)CC2)cc1` (centres undefined) the same measures were 4% and -0.49.
For `Cc1nonc1OCCn1cnc(-c2ccccc2)c1[C@H]1CCOC1` the same measures were -8% and 1.09.
For `CCCc1cc(N2CCc3nn(CC)c(=O)cc3C2)n2ncnc2n1` the same measures were -6% and 0.63.
For `Cc1ccc(C(=O)NCC(F)(F)F)o1`, the “% Inhibition” value is reported as -10% and the Z score stood at 0.91.
For `CC[C@H](C)N(Cc1c(-c2ccccc2)noc1N1CCOCC1)C(=O)c1ccccc1` the same measures were -8% and 1.4.
For `CC(C)(C)c1nc(C#N)c(NCCOc2ccccc2)o1` the same measures were 1% and -0.24.
In the case of `Cc1nc(C(C)(C)NC(=O)C[C@@H]2C=CCC2)sc1C`, the “% Inhibition” value is listed as -7% and the Z score was found to be 1.16.
For `Cc1ccc(NC(=O)CN2CCN(c3ccc4c(c3)OCCO4)C2=O)cc1F` the same measures were -11% and 1.94.
For `NC(=O)c1nsc2c(=O)n(CC(=O)NCc3ccccc3)cnc12` the same measures were 2% and -0.39.
For `O=C1CCN(c2nc(C3CCCC3)nc3c2CCNCC3)CCN1` the same measures were 14% and -1.74.
For the molecule `Cc1ccc(-c2ccc3nn(Cc4ccc5c(c4)OCO5)c(=O)n3n2)cc1C`, the “% Inhibition” value is given as 2% and the Z score is on record as -0.25.
For `CC(Oc1ccccc1)C(=O)NC1CC2CCC1C2` (centres undefined) the same measures were -26% and 2.33.
With `CC[C@](C)(NC(=O)c1cccc(-n2cnnn2)c1)c1nc(C)cs1`, the “% Inhibition” value is given as -7% and the Z score is reported as 1.33.
For the molecule `Cc1cc(CNCc2ccccc2)c(C)n1-c1cccc(S(=O)(=O)N2CCOCC2)c1`, the “% Inhibition” value was found to be 4% and the Z score is -0.62.
